Measurements published in PubChem BioAssay AID624170 (National Center for Advancing Translational Sciences (NCATS), 2012).
About 850 (0.21%) of roughly 410,000 compounds were called active. Inconclusive means that the source gave no clear call. Such entries were picked first, then a sample of the others. The call rests on the fitted dose curve; in most records, active means well fitted inhibition curve with a large enough effect; inconclusive means small, poorly fitted or top-dose-only effect, or another doubt; inactive means no such curve, though single readings can be large or run the other way. No potency is given beside an inconclusive call; the fits are too rough.
Potency means the concentration at half of the fitted maximal effect; tags describe the fitted curve by direction and shape.

These compounds were tested against Glutaminase kidney isoform, mitochondrial (Homo sapiens) (UniProt O94925) (assay: qHTS for Inhibitors of Glutaminase (GLS)). Conditions: GLS enzymatic activity, qHTS titration; series mostly up to 45.5 µM.
Chain of UniProt O94925 (O94925 whole entry, looked up, canonical isoform): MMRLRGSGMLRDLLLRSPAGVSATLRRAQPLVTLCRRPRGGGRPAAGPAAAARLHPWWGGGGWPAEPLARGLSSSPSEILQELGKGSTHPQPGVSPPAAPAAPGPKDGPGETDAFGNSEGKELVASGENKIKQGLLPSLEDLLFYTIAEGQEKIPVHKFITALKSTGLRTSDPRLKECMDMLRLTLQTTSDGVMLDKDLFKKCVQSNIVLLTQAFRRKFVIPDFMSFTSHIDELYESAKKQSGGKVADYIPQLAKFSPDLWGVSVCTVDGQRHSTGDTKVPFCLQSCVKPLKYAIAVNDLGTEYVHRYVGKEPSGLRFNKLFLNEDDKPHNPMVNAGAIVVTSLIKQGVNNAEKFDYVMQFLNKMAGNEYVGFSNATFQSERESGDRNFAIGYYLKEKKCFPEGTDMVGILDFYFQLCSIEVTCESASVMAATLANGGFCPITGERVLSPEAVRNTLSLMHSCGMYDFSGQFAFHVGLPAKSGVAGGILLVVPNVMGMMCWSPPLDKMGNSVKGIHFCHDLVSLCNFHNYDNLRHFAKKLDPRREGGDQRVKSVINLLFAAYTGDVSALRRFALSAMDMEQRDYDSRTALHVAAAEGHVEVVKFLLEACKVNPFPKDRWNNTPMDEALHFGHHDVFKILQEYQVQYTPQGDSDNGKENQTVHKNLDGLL
Procedure, shortened: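 Human kidney-isoform GLS in 45 mM KH2PO4 pH 8.2, 0.02% Tween-20, with compound, started with 1mM L-Glutamine (added stock). Glutamate oxidase/HRP/Amplex red coupled fluorescence read at start and after 30 min at RT.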
With `O=C(NCCc1ccc(O)c(O)c1)C1COc2ccccc2O1` (stereo not given) the Potency was inconclusive [inhibitor, single point]. With `CC(C(=O)Nc1ccc(N2CCOCC2)cc1)N1C(=O)c2ccccc2C1=O` (stereo not given) the Potency was “inactive”. With `CCn1cc(-c2cc(C(F)(F)F)n3nc(C(=O)O)cc3n2)c(C)n1` the Potency was inconclusive [inhibitor, single point]. For `C=CCSc1nc(N)c2c3c(sc2n1)CN(C)CC3`, the Potency was inconclusive [inhibitor, single point]. With `O=C(Cc1cccs1)NCc1ccc(Cl)cc1` the Potency was “inactive”. For `FC(F)(F)c1ccc(Cl)c(-n2c(Cc3cccs3)n[nH]c2=S)c1`, the Potency was inconclusive [inhibitor, partial curve, poor fit]. `Cc1cccc(/C=C2/SC(=O)N(Cc3ccccc3Cl)C2=O)n1` was tested, and the Potency was “inactive”. With `O=C(O)CCCNS(=O)(=O)c1cccc2nsnc12` the Potency was inconclusive [inhibitor, partial curve, poor fit]. In the case of `CCc1ccc(C(=O)NNc2ccc(S(N)(=O)=O)cc2)cc1`, the Potency is reported as inconclusive [inhibitor, partial curve]. In the case of `O=C(NCC1CCN(Cc2ccc(F)cc2)CC1)Nc1cc(F)ccc1F`, the Potency is reported as inconclusive [inhibitor, single point]. For `NNC(=O)c1nn(-c2ccc(Cl)cc2)cc1O`, the Potency was inconclusive [inhibitor, single point]. `COc1cc(C(F)(F)F)nc2ccc(C#CCOC(=O)Nc3ccccc3)cc12` was tested, and the Potency was inconclusive [inhibitor, single point]. For `O=[N+]([O-])c1ccc(N/N=C/c2ccc(O)c(O)c2O)c(S(=O)(=O)N2CCOCC2)c1`, the Potency was inconclusive [inhibitor, single point]. With `COc1ccc(C(=O)/C=C2/C(=O)Nc3ccccc32)c(OC)c1` the Potency was inconclusive [inhibitor, partial curve, poor fit]. `COCCN(C(=O)COC(=O)c1ccccc1NCc1ccco1)c1c(N)n(Cc2ccccc2)c(=O)[nH]c1=O` was tested, and the Potency was “inactive”. In the case of `COc1ccc(C(=O)C(C)OC(=O)CNC(=O)C2CCCCC2)cc1` (stereo not given), the Potency is reported as “inactive”. In the case of `OC(CN1CCCC(C(F)(F)F)C1)c1ccccc1` (stereo not given), the Potency is reported as “inactive”. `Cc1ccccc1-n1sc2cc(F)ccc2c1=O` was tested, and the Potency was inconclusive [inhibitor, full curve, poor fit]. With `N#C/C(=C/c1ccccc1)c1nn(CCO)c(N)c1C#N` the Potency was inconclusive [inhibitor, single point]. In the case of `O=C(CCc1nnc2ccc(NCc3ccco3)nn12)Nc1ccccn1`, the Potency is reported as inconclusive [inhibitor, partial curve]. In the case of `FC(F)Oc1ccc(NC(=S)Nc2ccc3cn[nH]c3c2)cc1`, the Potency is reported as inconclusive [inhibitor, single point]. `Cc1ccc(Cn2ncc3c(N4CCCC4)ncnc32)cc1` was tested, and the Potency was inconclusive [inhibitor, single point]. With `N=C(N)SCc1nc2ccccn2c1Br` the Potency was “inactive”. `Cn1c(=O)c(=O)n(C)c2cc(S(=O)(=O)NCc3ccc(Cl)cc3)ccc21` was tested, and the Potency was inconclusive [inhibitor, single point]. For `CCCCC/C=C\C/C=C\C/C=C\CCCCC(=O)O`, the Potency was inconclusive [inhibitor, single point]. In the case of `COc1ccc(OC)c(NC(=S)N2CCN(C/C=C/c3ccccc3)CC2)c1`, the Potency is reported as “inactive”. In the case of `COC(=O)C1CCN(C(=O)c2cc(-c3ccco3)nc3ccccc23)CC1`, the Potency is reported as inconclusive [inhibitor, single point]. For `CCN1CCN(C(c2cccs2)C(C)NC(=O)c2ccccc2OC)CC1` (stereo not given), the Potency was “inactive”. For `Cc1ccc(NC(=O)CSc2nnc(-c3ccncc3)n2C)cc1C`, the Potency was inconclusive [inhibitor, single point]. `O=C(O)c1cc(N/N=C2/CC(c3ccccc3)Oc3ccccc32)ccc1Cl` (stereo not given) was tested, and the Potency was inconclusive [inhibitor, single point]. `COc1cccc(NC(=O)COC(=O)c2cc(=O)c3ccccc3o2)c1` was tested, and the Potency was “inactive”. For `CCOc1cc2c(cc1OC)C(c1cccc([N+](=O)[O-])c1)NCC2` (stereo not given), the Potency was inconclusive [inhibitor, single point]. In the case of `COc1cccc2c1NC(C(=O)O)C1CC=CC21` (stereo not given), the Potency is reported as active: 2.82 µM. With `COc1ccc2c(c1OC)C(=O)OC2Nc1nc(-c2cccc([N+](=O)[O-])c2)cs1` (stereo not given) the Potency was inconclusive [inhibitor, single point]. In the case of `COc1cc(/C=C2/C(=O)c3cccc([N+](=O)[O-])c3C2=O)c(Br)cc1O`, the Potency is reported as inconclusive [inhibitor, single point]. For `COc1ccc(C2NC(=O)N(C)C3=C2C(=O)N(c2ccc(C)cc2)C3)cc1` (stereo not given), the Potency was “inactive”. For `Cc1cc(/C=C2\C(=N)N3N=C(CC(=O)N4CCOCC4)SC3=NC2=O)c(C)n1-c1ccccc1`, the Potency was inconclusive [inhibitor, single point]. `O=C(CNCc1ccc(Cl)cc1)Nc1ccc(C(=O)N2CCCCCC2)cc1` was tested, and the Potency was inconclusive [inhibitor, single point]. For `COc1cc(/C=C2/SC(=S)N(CC(=O)O)C2=O)ccc1OC(=O)c1ccco1`, the Potency was “inactive”. In the case of `Cc1sc2nc(CSCC(=O)Nc3ccc(OC(F)F)cc3)[nH]c(=O)c2c1C`, the Potency is reported as inconclusive [inhibitor, single point]. With `COc1cc(/C=C/C(=O)OCC(=O)c2ccc(OC(F)F)cc2)ccc1O` the Potency was active: 11.2 µM. `Nc1[nH]nc2nc3ccccc3cc12` was tested, and the Potency was inconclusive [inhibitor, partial curve]. With `CN(C)c1ccc(/C=C(/NC(=O)c2ccccc2)C(=O)N2CCCC2)cc1` the Potency was inconclusive [inhibitor, partial curve]. For `COc1ccc(S(=O)(=O)c2cnc(SCC(=O)Nc3cc(F)ccc3C)[nH]c2=O)cc1Cl`, the Potency was “inactive”. In the case of `CC1CCN(C2=C(NS(=O)(=O)c3ccccc3)C(=O)c3ccccc3C2=O)CC1`, the Potency is reported as inconclusive [inhibitor, partial curve, poor fit].
